Activation data for 54 molecules are collected here from PubChem BioAssay AID1346428 (National Center for Advancing Translational Sciences (NCATS), 2018).

About 1,200 (2.5%) of roughly 48,000 compounds were called active. Not shown: some 2% with an inconclusive outcome.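 How the source made its calls: active means activation of at least 60% and not above a set upper limit (about 1 call in 100 departs from these limits); inconclusive means activation of 40% to 60%, or above that upper limit; inactive means activation under 40%.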 The list shows a part of the results.

UniProt O75388, sequence (O75388 whole entry, looked up, the tested form may be a part): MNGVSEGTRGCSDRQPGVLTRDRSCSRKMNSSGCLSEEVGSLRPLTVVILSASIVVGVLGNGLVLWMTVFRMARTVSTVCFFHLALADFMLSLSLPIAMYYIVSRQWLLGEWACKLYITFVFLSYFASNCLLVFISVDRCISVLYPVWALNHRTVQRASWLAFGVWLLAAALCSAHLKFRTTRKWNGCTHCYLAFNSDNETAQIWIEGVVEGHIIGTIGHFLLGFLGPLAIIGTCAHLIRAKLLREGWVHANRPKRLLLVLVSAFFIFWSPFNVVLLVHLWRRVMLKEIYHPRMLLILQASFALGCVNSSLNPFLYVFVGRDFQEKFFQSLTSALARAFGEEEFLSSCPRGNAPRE

The target of the experiment is Probable G-protein coupled receptor 32 (Homo sapiens) (UniProt O75388). The experiment in a line: qHTS for Agonists of Human Resolvin D1 Receptor DRV1. Further: 0% is about no effect. The conditions noted are these: CHO-K1 GPR32 beta-arrestin PathHunter luminescence, 90 min; at 76.9 µM; active compounds read high; zero percent set by DMSO-only wells. The procedure, abridged:
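Agonism was scored by beta-Gal fragment complementation (chemiluminescent read, 1 h detection at ambient temperature) reporting beta-arrestin binding to GPR32 in engineered CHO-K1 cells. Compound treatment lasted 90 min at 37 C, normalized to a DMSO basal control.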
For orientation: Quantitative high-throughput screening tests each substance at several concentrations.
For `CC(=O)Nc1ccc(OCC(O)CNC(C)C)cc1` (centres undefined), the activation is inactive: -70.6%.

Consider `CCOC(=O)c1c(C)[nH]c(C)c1S(=O)(=O)N1CCCC(C(=O)NCc2ccccc2Cl)C1` (centres undefined), for which the activation was inactive: -0.499%.

`Cc1ccc2oc(-c3cc(NC(=O)CC(C)C)ccc3Cl)nc2c1`: the activation was inactive: 14.5%.

In the case of `CCCc1cc(=O)oc2c(C)c3c(cc12)CN(CCc1ccc(Cl)cc1)CO3`, the activation is inactive: -25.7%.

`CCC(C)NC(=O)Cn1c(=O)n(-c2ccc(OC)c(OC)c2)c(=O)c2ccccc21` (centres undefined): the activation was inactive: 2.95%.

Turning to `Cc1ccc2c(c1)Cc1c(nc(-c3ccc(F)cc3)nc1SCC(=O)N1CCCCC1)O2`, the activation was inactive: -1.31%.

Consider `Cc1ccc(Nc2c(-c3cccnc3)nc3ccc(Cl)cn23)cc1`, for which the activation was inactive: -16.7%.

As for `CCOC(=O)C1CCN(C(=O)c2c(C)nn(-c3ccc(F)cc3)c2-n2cccc2)CC1`, the activation was inactive: -5.55%.

For the molecule `COc1ccc2cc(CCNS(=O)(=O)c3ccc(C)cc3)c(=O)[nH]c2c1`, the activation was inactive: 0.159%.

As for `COc1ccccc1N1CCN(C(=O)CCS(=O)(=O)c2cc(Br)cc3c2N(C(C)=O)CC3)CC1`, the activation is inactive: 28%.

Take `Cc1cc(C)c2oc(-c3ccc(C)c(NC(=O)/C=C/c4ccco4)c3)nc2c1`: the activation is inactive: 18.3%.

`COc1ccc(CNC(=O)c2cc3c(=O)n(C)c4ccccc4c3n2C)c(OC)c1`: the activation is inactive: 19.7%.

For `O=C(COc1ccc(Cl)cc1)NCC(c1ccco1)S(=O)(=O)c1ccc(Cl)cc1` (centres undefined), the activation is inactive: -17.4%.

Consider `Cc1nc(N2CCCC2)ncc1C(=O)N1CCN(c2ccccc2F)CC1`, for which the activation was inactive: -5.71%.

`Cc1ccc(C(=O)n2nc(C)c(S(=O)(=O)N3CCOCC3)c2C)cc1C`: the activation was inactive: -5.29%.

Turning to `CC1=C(C(=O)Nc2ccccc2)C(c2cc(Br)ccc2F)n2ncc(C(=O)Nc3ccccc3)c2N1` (centres undefined), the activation is inactive: -23.2%.

In the case of `COc1cccc(-c2nc(S(=O)(=O)c3ccccc3)c(N3CCC(C)CC3)o2)c1`, the activation is inactive: 10.8%.

As for `CCS(=O)(=O)c1c(Nc2cc(C)ccc2C)sc(C(=O)c2ccccc2)c1N`, the activation is inactive: -47.7%.

`Cc1ccc(NC(=O)c2nnn(CC(=O)Nc3ccc(C)c(Cl)c3)c2N)c(C)c1`: the activation was inactive: -7.39%.

As to `O=C(Nc1ccccc1)OCC(CN1CCCCC1)OC(=O)Nc1ccccc1` (centres undefined), the activation is inactive: 16.8%.

As to `O=c1c2ccccc2nc(-c2ccc(Cl)cc2)n1CCCOc1ccccc1F`, the activation was inactive: -2.91%.

Consider `CCOc1cccc2sc(NC(=O)CS(=O)(=O)c3ccc(C)cc3)nc12`, for which the activation is inactive: -14%.

As for `COC(=O)Cc1c(C)nc2nc(-c3ccc(C)cc3)[nH]n2c1=O`, the activation was inactive: 9.12%.

With `CCOc1ccc(CCNC(=O)c2cnc3sc(N4CCCCC4)nn3c2=O)cc1`, the activation is inactive: 10.2%.

With `COc1ccc(N2C(=O)CSC23C(=O)N(CC(N)=O)c2ccccc23)cc1` (centres undefined), the activation was inactive: -14.6%.

For `CCN(Cc1ccccc1)S(=O)(=O)c1ccc(F)c(C(=O)Nc2cc(C(F)(F)F)ccc2Cl)c1`, the activation was inactive: -7.81%.

Turning to `CC(C)c1ccc(N2C(=O)N(Cc3ccccc3Cl)c3ccccc3S2(=O)=O)cc1`, the activation is inactive: -7.02%.

For `COc1ccc(-n2c(=O)c3sc4ccccc4c3n(CC(=O)NC3CCCCC3)c2=O)cc1`, the activation was inactive: 5.77%.

Take `O=C(Nc1cc(C(F)(F)F)ccc1Cl)c1cnn(-c2ccccc2)c1-n1cccc1`: the activation was inactive: 13.8%.

On to `COC(=O)c1ccc([C@H]2Nc3ccc(S(=O)(=O)Nc4cccc(C)c4)cc3[C@H]3C=CC[C@H]32)cc1`, for which the activation was inactive: -23.1%.

In the case of `COc1ccc(-n2c(=O)c3c(c4cc(OC)ccc4n3C)n(CCC(C)C)c2=O)cc1`, the activation is inactive: -14.6%.

Regarding `COC(=O)c1c(-c2ccccc2)c(-c2ccccc2)nn(C)c1=O`, the activation was inactive: 1.65%.

Regarding `CCCCOc1ccc(C(=O)N(Cc2ccco2)Cc2ccco2)cc1`, the activation was inactive: -36.9%.

For the molecule `COc1ccccc1C1CC(=O)N(c2cccc(C(F)(F)F)c2)C2=C1C(=O)OC2` (centres undefined), the activation was inactive: 5.21%.

With `COCCNC(=O)CCCn1c(SCc2ccccc2Cl)nc2c(sc3ccccc32)c1=O`, the activation is inactive: -0.892%.

For the molecule `Cc1cc(Br)cc2c(C(=O)OCC(=O)c3ccccc3)cc(-c3ccccc3)nc12`, the activation is inactive: 7.55%.

In the case of `Cc1c(-c2nnc(SCC(=O)Nc3ccc(Cl)cc3)o2)nnn1-c1ccc(F)cc1`, the activation is inactive: 23.9%.

In the case of `Cc1cccc(N(CC(N)=O)C2SC(=O)N(Cc3cccc(C(=O)O)c3)C2=O)c1` (centres undefined), the activation was inactive: -85.1%.

Regarding `CCC(=O)Nc1nnc2n1CCS2`, the activation is inactive: 7.76%.

Consider `Cc1ccc(/C=N/n2c(-c3ccccc3)csc2=S)cc1`, for which the activation is inactive: -43.1%.

With `Cc1cc(CN2CCN(c3ccc(F)cc3)CC2)cs1`, the activation was inactive: -11%.

As for `O=c1[nH]c(SCc2cccc(Cl)c2)nc2c1CCC2`, the activation is inactive: 19.8%.

With `CCN1CCSc2ccc(C(=O)NCc3ccccc3Br)cc21`, the activation was inactive: -34.3%.

In the case of `COc1ccccc1N1CCN(C(=O)c2cnc(N3CCOCC3)c3ccccc23)CC1`, the activation was inactive: -14.3%.

Regarding `COc1ccc(CCNC(=O)CCc2cn(Cc3ccc(C)cc3)c3ccccc23)c(OC)c1OC`, the activation was inactive: -27.2%.

As for `CCC(C)NC(=O)c1[nH]c2cc(C)ccc2c1Sc1ccc(Cl)cc1` (centres undefined), the activation is inactive: -2.81%.

Regarding `CCOc1cc2[nH]c(=O)n(CCCCC(=O)N3CCN(c4ccccc4)CC3)c(=O)c2cc1OCC`, the activation is inactive: -5.21%.

On to `COc1ccc(-c2noc(N3CCC(C(=O)N(C)c4cc(Cl)ccc4OC)CC3)n2)cc1`, for which the activation was inactive: -26.6%.

As to `COc1ccc2oc(=O)c(-c3cn4c(n3)sc3cc(F)ccc34)cc2c1`, the activation was inactive: -9.4%.

For the molecule `COc1ccc2c(CNCCc3cccs3)c(C(=O)O)n(Cc3ccccc3C)c2c1`, the activation was inactive: -10.5%.

On to `O=C(CN1C(=O)COc2ccc(S(=O)(=O)N3CCCCCC3)cc21)N1CCN(c2cccc(C(F)(F)F)c2)CC1`, for which the activation was inactive: 3.58%.

`Cc1cccc(C)c1OCC(=O)Nc1c(C(=O)c2ccc(Br)cc2)oc2ccccc12`: the activation was inactive: 10.7%.

Consider `CCCOc1ccc(-c2nc(N3CCC(C)CC3)c3ccccc3n2)cc1`, for which the activation was inactive: 15.2%.

With `CCCn1c2ccccc2c2cnn(CC(=O)N(Cc3ccccc3)C(C)C)c(=O)c21`, the activation is inactive: 24.9%.
